Among all 310,000 compounds or so, about 14,000 (4.5%) showed an effect of 50% or more. Effects have a minus sign here. Some of the results follow.
What follows are compounds tested against human ether-à-go-go-related gene (hERG) potassium channel (human, UniProt Q12809) (assay: primary screen, population patch clamp on CHO cells stably expressing hERG).
Chain of human ether-à-go-go-related gene (hERG) potassium channel (Q12809 whole entry, looked up): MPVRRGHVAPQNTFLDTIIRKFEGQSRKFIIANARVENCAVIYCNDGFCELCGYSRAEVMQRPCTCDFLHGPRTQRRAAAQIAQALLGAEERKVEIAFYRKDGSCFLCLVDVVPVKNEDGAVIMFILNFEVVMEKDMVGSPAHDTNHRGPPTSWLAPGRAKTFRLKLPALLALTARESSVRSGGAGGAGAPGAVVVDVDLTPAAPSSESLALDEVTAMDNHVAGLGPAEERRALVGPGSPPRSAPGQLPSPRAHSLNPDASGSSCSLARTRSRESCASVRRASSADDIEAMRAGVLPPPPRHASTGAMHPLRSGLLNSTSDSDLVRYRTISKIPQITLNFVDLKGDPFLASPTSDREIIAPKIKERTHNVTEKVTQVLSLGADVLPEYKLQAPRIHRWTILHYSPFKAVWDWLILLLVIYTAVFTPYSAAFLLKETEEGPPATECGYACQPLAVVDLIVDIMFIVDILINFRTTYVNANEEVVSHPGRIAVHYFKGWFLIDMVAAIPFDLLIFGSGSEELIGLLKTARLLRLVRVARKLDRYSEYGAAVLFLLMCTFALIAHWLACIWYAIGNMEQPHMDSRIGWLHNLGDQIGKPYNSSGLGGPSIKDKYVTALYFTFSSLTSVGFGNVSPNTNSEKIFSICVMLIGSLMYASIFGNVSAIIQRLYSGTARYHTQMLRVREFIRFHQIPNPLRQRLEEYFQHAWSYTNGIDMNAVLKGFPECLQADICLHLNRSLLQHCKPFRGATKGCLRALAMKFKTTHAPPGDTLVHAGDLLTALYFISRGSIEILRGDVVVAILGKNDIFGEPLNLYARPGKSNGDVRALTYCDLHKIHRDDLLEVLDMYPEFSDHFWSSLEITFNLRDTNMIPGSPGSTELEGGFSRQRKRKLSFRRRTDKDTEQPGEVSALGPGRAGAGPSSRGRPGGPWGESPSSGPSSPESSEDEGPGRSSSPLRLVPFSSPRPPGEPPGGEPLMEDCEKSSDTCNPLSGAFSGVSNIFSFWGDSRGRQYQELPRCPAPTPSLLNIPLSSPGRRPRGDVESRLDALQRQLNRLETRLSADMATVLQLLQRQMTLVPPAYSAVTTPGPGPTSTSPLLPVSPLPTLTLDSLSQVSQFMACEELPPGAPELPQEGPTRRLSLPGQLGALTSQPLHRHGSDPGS
For `CC(Sc1nnnn1C)C(=O)Nc1cc(S(=O)(=O)N2CCCCC2)ccc1Cl` (centres unmarked), the “hERG current change (%, negative = inhibition) at 10uM” value was -28.2%. In the case of `CCOC(=O)C1CN(c2cc3c(cc2F)c(=O)c(C(=O)O)cn3CC)OC1C(=O)OCC` (centres unmarked), the “hERG current change (%, negative = inhibition) at 10uM” value was 7.81%. With `COc1cccc2c(=O)cn[nH]c12` the “hERG current change (%, negative = inhibition) at 10uM” value was 4.63%. `COc1cc2ccccc2cc1C(=O)O` was tested, and the “hERG current change (%, negative = inhibition) at 10uM” value was 8.36%. With `CCc1nc2ccccc2c(C(=O)OCC(=O)N2CC(C)OC(C)C2)c1C` (centres unmarked) the “hERG current change (%, negative = inhibition) at 10uM” value was 17%. For `Cc1ccc(N=C2CCCCCN2C)c(C#N)c1.Cl`, the “hERG current change (%, negative = inhibition) at 10uM” value was -7.98%. In the case of `O=C(NCCCCCCNC(=O)c1ccc(Br)s1)c1ccc(Br)s1`, the “hERG current change (%, negative = inhibition) at 10uM” value was 1.78%. With `O=Cc1cnc(N2CCN(c3ccccc3)CC2)s1` the “hERG current change (%, negative = inhibition) at 10uM” value was 0.238%. `CC1CN(C(=O)CCC(=O)NCCCN2C(C)CCCC2C)c2ccccc2O1` (centres unmarked) was tested, and the “hERG current change (%, negative = inhibition) at 10uM” value was -10.9%. `Cc1c(C(=O)NCc2ccc3c(c2)OCO3)oc2ccc(Br)cc12` was tested, and the “hERG current change (%, negative = inhibition) at 10uM” value was 1.72%. With `CCC1CCCCN1C(=O)Cn1c(=O)oc2ccccc21` (centres unmarked) the “hERG current change (%, negative = inhibition) at 10uM” value was 2.66%. With `Cn1c(CNS(=O)(=O)c2ccc(Br)cc2)n[nH]c1=S` the “hERG current change (%, negative = inhibition) at 10uM” value was -36.9%. In the case of `COc1ccccc1CCC(=O)NNC(=O)c1ccccc1`, the “hERG current change (%, negative = inhibition) at 10uM” value was -8.3%. For `CC(=O)Nc1ccc2c(c1)ncn2-c1ccccc1`, the “hERG current change (%, negative = inhibition) at 10uM” value was 3.72%. With `COc1ccc(-c2cc(C3CC3)nc(N)c2C#N)cc1` the “hERG current change (%, negative = inhibition) at 10uM” value was 19.4%. In the case of `CCc1c(C)nc2[nH]nc(NC(=O)C(F)(F)F)n2c1=O`, the “hERG current change (%, negative = inhibition) at 10uM” value was 14.6%. In the case of `COc1ccc(CCNC(=O)CC2SC(=NCc3ccccc3OC)NC2=O)cc1` (centres unmarked), the “hERG current change (%, negative = inhibition) at 10uM” value was 41.6%. With `COc1cc(S(=O)(=O)N2CCOCC2)ccc1NC(=O)CN1c2cccc3cccc(c23)S1(=O)=O` the “hERG current change (%, negative = inhibition) at 10uM” value was -11.8%. With `COc1ccc(CCNC(=O)c2sc3cc(C)ccc3c2Cl)cc1` the “hERG current change (%, negative = inhibition) at 10uM” value was 3.77%. With `C[C@@H]1O[C@@H](OC2C(O)C(OCCc3ccc(O)c(O)c3)OC(CO)C2OC(=O)/C=C/c2ccc(O)c(O)c2)[C@H](O)[C@H](O)[C@H]1O` (some centres unmarked) the “hERG current change (%, negative = inhibition) at 10uM” value was 18.8%. `O=C(O)c1ccc2c3c(cccc13)C(=O)N(c1cccc3ccccc13)C2=O` was tested, and the “hERG current change (%, negative = inhibition) at 10uM” value was 34.3%. `CCc1cc2cc3c(cc2nc1SCC(=O)Nc1cc(OC)c(OC)cc1C(=O)O)OCO3` was tested, and the “hERG current change (%, negative = inhibition) at 10uM” value was -4.72%. For `COc1ccc(/C(O)=C2/C(=O)C(=O)N(c3nc(C)c(C)s3)C2c2ccco2)cc1` (centres unmarked), the “hERG current change (%, negative = inhibition) at 10uM” value was 10.5%. `COc1cc(C2NC(=O)NC(C)=C2C(=O)OC2CCCC(C)C2)cc(Br)c1O` (centres unmarked) was tested, and the “hERG current change (%, negative = inhibition) at 10uM” value was -2.79%. `Cn1cc(Br)c(C(=O)NNC(=O)c2cccc(Br)c2)n1` was tested, and the “hERG current change (%, negative = inhibition) at 10uM” value was -3.76%. For `Cc1ccc(C)c(C(=O)CCC(=O)OCn2nnc3ccccc3c2=O)c1`, the “hERG current change (%, negative = inhibition) at 10uM” value was 8.38%. With `COC(=O)c1sc(N)c(C(=O)OC)c1COC(=O)CNS(=O)(=O)c1ccc(C)c(C)c1` the “hERG current change (%, negative = inhibition) at 10uM” value was -18.9%. `CC1CCCN(C(=O)C(=O)Nc2ccc3nc4n(c(=O)c3c2)CCCCC4)C1` (centres unmarked) was tested, and the “hERG current change (%, negative = inhibition) at 10uM” value was -17.8%. With `COc1ccc(/C=N/NC(=O)C(=O)N2CCN(c3ccccc3OC)CC2)cc1` the “hERG current change (%, negative = inhibition) at 10uM” value was -27.6%. With `COc1ccc(N(CC(=O)NCc2ccc(F)cc2)C(=O)Cn2nnc(-c3ccc(C)o3)n2)cc1OC` the “hERG current change (%, negative = inhibition) at 10uM” value was -2.94%. In the case of `O=[N+]([O-])c1cc(Cl)ccc1N1CCCCC1`, the “hERG current change (%, negative = inhibition) at 10uM” value was 2.47%. For `CCOC(=O)c1sc(=S)n(Cc2ccccc2)c1C`, the “hERG current change (%, negative = inhibition) at 10uM” value was 4.15%. In the case of `COc1cc(/C=N/Nc2nncn2N)ccc1OCc1c(C)no[n+]1[O-]`, the “hERG current change (%, negative = inhibition) at 10uM” value was 17%. In the case of `CNC(=O)C1=C(C)Nc2nc3ccccc3n2C1c1cccc(OC)c1` (centres unmarked), the “hERG current change (%, negative = inhibition) at 10uM” value was -7.64%. With `COCCNC(=O)c1ccccc1-c1ccccc1C(=O)O` the “hERG current change (%, negative = inhibition) at 10uM” value was -8.63%. In the case of `CSc1ccccc1Nc1ncnc(N)n1`, the “hERG current change (%, negative = inhibition) at 10uM” value was 6.71%. With `CCCC(=O)N1CCN(c2ccc(NC(=O)c3cccs3)cc2)CC1` the “hERG current change (%, negative = inhibition) at 10uM” value was -18.2%. For `Cc1ccc(N(CC(=O)N/N=C/c2cccc(Br)c2)S(C)(=O)=O)cc1`, the “hERG current change (%, negative = inhibition) at 10uM” value was 13.6%. `Cc1ccc(C)c(OCC(=O)NNC(=O)C2CCC2)c1` was tested, and the “hERG current change (%, negative = inhibition) at 10uM” value was 25.2%. In the case of `COc1ccc(NC(=O)C2CCCN(S(=O)(=O)c3cccc4nonc34)C2)c(OC)c1` (centres unmarked), the “hERG current change (%, negative = inhibition) at 10uM” value was 5.29%. For `COc1ccc(CC(=O)N2N=C(C)CC2(O)C(F)(F)F)cc1OC` (centres unmarked), the “hERG current change (%, negative = inhibition) at 10uM” value was 9.76%. With `CCCCN(C(=O)C1=NN(c2cc(C)ccc2C)C(=O)CC1)c1c(N)n(CCC)c(=O)[nH]c1=O` the “hERG current change (%, negative = inhibition) at 10uM” value was 1.63%. For `Cc1cccc2cc3c(N)c(C(=O)N4CCOCC4)sc3nc12`, the “hERG current change (%, negative = inhibition) at 10uM” value was 1.55%. For `CC(C)(C(=O)c1cccnc1)c1cccnc1`, the “hERG current change (%, negative = inhibition) at 10uM” value was 7.84%. In the case of `Cn1c(SCC(=O)NCCc2ccccc2)ncc(C(=O)Nc2ccc(F)cc2)c1=O`, the “hERG current change (%, negative = inhibition) at 10uM” value was 9.45%. With `CNC(=O)c1csc(-c2ccncc2)n1` the “hERG current change (%, negative = inhibition) at 10uM” value was 18.2%. In the case of `COc1ccccc1Nc1ncc(-c2cccs2)s1`, the “hERG current change (%, negative = inhibition) at 10uM” value was 0.587%. For `CCOC(=O)N1CCN(C(=O)COC(=O)CNC(=O)c2ccc(Cl)cc2Cl)CC1`, the “hERG current change (%, negative = inhibition) at 10uM” value was -41.2%. In the case of `Cc1cccc(S(=O)(=O)N2CCn3cccc3C2C)c1` (centres unmarked), the “hERG current change (%, negative = inhibition) at 10uM” value was -6.56%. In the case of `CC1CCCCC1NC(=O)c1ccc(NC2=NC3CS(=O)(=O)CC3S2)cc1` (centres unmarked), the “hERG current change (%, negative = inhibition) at 10uM” value was 12.9%. With `CCCC(=O)Nc1ncnc2c1ncn2[C@@H]1O[C@@H]2COP(=O)([O-])O[C@H]2[C@H]1OC(=O)CCC.[Na+]` the “hERG current change (%, negative = inhibition) at 10uM” value was 19.6%. With `O=S(=O)(NCC1CCCO1)c1ccc(Cl)cc1` (centres unmarked) the “hERG current change (%, negative = inhibition) at 10uM” value was 14.6%. `CCNC(=O)CCSc1nnc(-c2ccncc2)o1` was tested, and the “hERG current change (%, negative = inhibition) at 10uM” value was 19.3%. In the case of `COc1ccc(/C=C2\SC(=O)N(CCNC(=O)Cc3coc4cc(OC)ccc34)C2=O)cc1`, the “hERG current change (%, negative = inhibition) at 10uM” value was 13.7%. For `CCN(CC(=O)Nc1cccc(OC)c1)CC(=O)Nc1ccc(C)cc1Cl`, the “hERG current change (%, negative = inhibition) at 10uM” value was -10.4%. In the case of `CC(C)OC(=O)C(C)(C)Oc1ccc(C(=O)c2ccc(Cl)cc2)cc1`, the “hERG current change (%, negative = inhibition) at 10uM” value was -3.67%.

— article PMC4336329 (PLoS ONE, 2015)
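Also: peak tail current of the secondary pulse compared with the same well before compound.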
